# Measured values from the supplement of paper PMC8728848.
# This is one part of the list.
# B1: DrGal9 (Danio rerio) (protein)
# chain: MAFYQQPPYYNPRIPFSGPIQGGLQDGKSIIISGRVLPGANRFHVNLQCGSHSEANVALHFNPRYEDTDYVVNNSYLNRTWGSEERKYESPFAQGQTFTLQILVAQDKYKISTNGRHFMDYKHRIPFTQVDTVAVEGMVEVNSVAFQNPAGFIPPQAGYAPQYAVPPGCGFPAFPSAPNYTIPHKTVMNGGLHPGKNIVINGVVNPNAKSIIFNLCYRSGIAFHYNPRFDENVVVRNTNQMEKWGAEERFGGLPFHKGQPFQVTISCNPQHYNVFVNGKQEHTYKHRYTKLNDIDILEICGDLQLTSVQA
# Key:
# Experiment in all cases: glycan array binding signal (z-score within array); higher = stronger binding
# Details in all cases: glycan notation: IUPAC condensed, linker removed
# [1] = molecular target: Neu5Ac(a2-6)Gal(b1-4)GlcNAc(b1-2)Man(a1-3)[GlcNAc(b1-4)][Neu5Ac(a2-6)Gal(b1-4)GlcNAc(b1-2)Man(a1-6)]Man(b1-4)GlcNAc(b1-4)GlcNAc
# In short: (§1)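 Columns mapping to the same glycan were averaged after glycan names were converted to IUPAC-condensed notation. The data come from 3228 arrays in the Consortium for Functional Glycomics database, limited to those with an available protein sequence. Binding is reported as a within-array Z-score averaged across arrays of one protein sequence and across linkers.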
# [2] = molecular target: Neu5Ac(a2-6)Gal(b1-4)GlcNAc(b1-2)Man(a1-3)[Man(a1-6)]Man(b1-4)GlcNAc(b1-4)GlcNAc
# In short: as §1
# [3] = molecular target: Neu5Ac(a2-6)Gal(b1-4)GlcNAc(b1-2)Man(a1-3)[Neu5Ac(a2-3)Gal(b1-4)GlcNAc(b1-2)Man(a1-6)]Man(b1-4)GlcNAc(b1-4)GlcNAc
# In short: as §1
# [4] = molecular target: Neu5Ac(a2-6)Gal(b1-4)GlcNAc(b1-2)Man(a1-3)[Neu5Ac(a2-6)Gal(b1-4)GlcNAc(b1-2)Man(a1-6)]Man(b1-4)GlcNAc(b1-4)GlcNAc
# In short: as §1
# [5] = molecular target: Neu5Ac(a2-6)Gal(b1-4)GlcNAc(b1-2)Man(a1-3)[Neu5Ac(a2-6)Gal(b1-4)GlcNAc(b1-2)Man(a1-6)]Man(b1-4)GlcNAc(b1-4)[Fuc(a1-6)]GlcNAc
# In short: as §1
# [6] = molecular target: Neu5Ac(a2-6)Gal(b1-4)GlcNAc(b1-2)Man(a1-6)Man(b1-4)GlcNAc(b1-4)GlcNAc
# In short: as §1
# [7] = molecular target: Neu5Ac(a2-6)Gal(b1-4)GlcNAc(b1-2)Man(a1-6)[Gal(b1-4)GlcNAc(b1-2)Man(a1-3)]Man(b1-4)GlcNAc(b1-4)GlcNAc
# In short: as §1
# [8] = molecular target: Neu5Ac(a2-6)Gal(b1-4)GlcNAc(b1-2)Man(a1-6)[GlcNAc(b1-2)Man(a1-3)]Man(b1-4)GlcNAc(b1-4)GlcNAc
# In short: as §1
# [9] = molecular target: Neu5Ac(a2-6)Gal(b1-4)GlcNAc(b1-2)Man(a1-6)[Man(a1-3)]Man(b1-4)GlcNAc(b1-4)GlcNAc
# In short: as §1
# [10] = molecular target: Neu5Ac(a2-6)Gal(b1-4)GlcNAc(b1-2)[Neu5Ac(a2-6)Gal(b1-4)GlcNAc(b1-4)]Man(a1-3)[GlcNAc(b1-4)][Neu5Ac(a2-6)Gal(b1-4)GlcNAc(b1-2)[Neu5Ac(a2-6)Gal(b1-4)GlcNAc(b1-6)]Man(a1-6)]Man(b1-4)GlcNAc(b1-4)GlcNAc
# In short: as §1
# [11] = molecular target: Neu5Ac(a2-6)Gal(b1-4)GlcNAc(b1-2)[Neu5Ac(a2-6)Gal(b1-4)GlcNAc(b1-4)]Man(a1-3)[GlcNAc(b1-4)][Neu5Ac(a2-6)Gal(b1-4)GlcNAc(b1-4)Man(a1-6)]Man(b1-4)GlcNAc(b1-4)GlcNAc
# In short: as §1
# [12] = molecular target: Neu5Ac(a2-6)Gal(b1-4)GlcNAc(b1-2)[Neu5Ac(a2-6)Gal(b1-4)GlcNAc(b1-6)]Man(a1-6)[Neu5Ac(a2-6)Gal(b1-4)GlcNAc(b1-2)Man(a1-3)][GlcNAc(b1-4)]Man(b1-4)GlcNAc(b1-4)GlcNAc
# In short: as §1
# [13] = molecular target: Neu5Ac(a2-6)Gal(b1-4)GlcNAc(b1-3)Gal(b1-3)GlcNAc
# In short: as §1
# [14] = molecular target: Neu5Ac(a2-6)Gal(b1-4)GlcNAc(b1-3)Gal(b1-4)GlcNAc
# In short: as §1
# [15] = molecular target: Neu5Ac(a2-6)Gal(b1-4)GlcNAc(b1-3)Gal(b1-4)GlcNAc(b1-2)Man(a1-3)[Neu5Ac(a2-6)Gal(b1-4)GlcNAc(b1-3)Gal(b1-4)GlcNAc(b1-2)Man(a1-6)]GalNAc
# In short: as §1
# [16] = molecular target: Neu5Ac(a2-6)Gal(b1-4)GlcNAc(b1-3)Gal(b1-4)GlcNAc(b1-3)Gal(b1-4)GlcNAc
# In short: as §1
# [17] = molecular target: Neu5Ac(a2-6)Gal(b1-4)GlcNAc(b1-3)Gal(b1-4)GlcNAc(b1-3)Gal(b1-4)GlcNAc(b1-2)Man(a1-3)[Neu5Ac(a2-6)Gal(b1-4)GlcNAc(b1-3)Gal(b1-4)GlcNAc(b1-3)Gal(b1-4)GlcNAc(b1-2)Man(a1-6)]GalNAc
# In short: as §1
# [18] = molecular target: Neu5Ac(a2-6)Gal(b1-4)GlcNAc(b1-3)Gal(b1-4)GlcNAc(b1-3)GalNAc
# In short: as §1
# [19] = molecular target: Neu5Ac(a2-6)Gal(b1-4)GlcNAc(b1-3)Gal(b1-4)GlcNAc(b1-3)[Neu5Ac(a2-6)Gal(b1-4)GlcNAc(b1-3)Gal(b1-4)GlcNAc(b1-6)]GalNAc
# In short: as §1
# [20] = molecular target: Neu5Ac(a2-6)Gal(b1-4)GlcNAc(b1-3)Gal(b1-4)GlcNAc(b1-6)[Gal(b1-3)]GalNAc
# In short: as §1
# [21] = molecular target: Neu5Ac(a2-6)Gal(b1-4)GlcNAc(b1-3)Gal(b1-4)[Fuc(a1-3)]GlcNAc(b1-3)Gal(b1-4)[Fuc(a1-3)]GlcNAc
# In short: as §1
# [22] = molecular target: Neu5Ac(a2-6)Gal(b1-4)GlcNAc(b1-3)GalNAc
# In short: as §1
# [23] = molecular target: Neu5Ac(a2-6)Gal(b1-4)GlcNAc(b1-3)[Neu5Ac(a2-6)Gal(b1-4)GlcNAc(b1-6)]GalNAc
# In short: as §1
# [24] = molecular target: Neu5Ac(a2-6)Gal(b1-4)GlcNAc(b1-6)GalNAc
# In short: as §1
# [25] = molecular target: Neu5Ac(a2-6)Gal(b1-4)GlcNAc(b1-6)[Gal(b1-3)GlcNAc(b1-3)]Gal(b1-4)Glc
# In short: as §1
# [26] = molecular target: Neu5Ac(a2-6)Gal(b1-4)GlcNAc(b1-6)[Gal(b1-3)]GalNAc
# In short: as §1
# [27] = molecular target: Neu5Ac(a2-6)Gal(b1-4)GlcNAc6S
# In short: as §1
# [28] = molecular target: Neu5Ac(a2-6)GalNAc
# In short: as §1
# [29] = molecular target: Neu5Ac(a2-6)GalNAc(b1-4)GlcNAc
# In short: as §1
# [30] = molecular target: Neu5Ac(a2-6)GalNAc(b1-4)GlcNAc6S
# In short: as §1
# [31] = molecular target: Neu5Ac(a2-6)GlcNAc(b1-4)GlcNAc
# In short: as §1
binder,measurement,setting,value
B1,glycan array binding signal (z-score),[1],-0.405
same,glycan array binding signal (z-score),[2],-0.403
same,glycan array binding signal (z-score),[3],-0.159
same,glycan array binding signal (z-score),[4],-0.398
same,glycan array binding signal (z-score),[5],-0.382
same,glycan array binding signal (z-score),[6],-0.399
same,glycan array binding signal (z-score),[7],0.46
same,glycan array binding signal (z-score),[8],-0.4
same,glycan array binding signal (z-score),[9],-0.373
same,glycan array binding signal (z-score),[10],-0.477
same,glycan array binding signal (z-score),[11],-0.389
same,glycan array binding signal (z-score),[12],-0.406
same,glycan array binding signal (z-score),[13],0.172
same,glycan array binding signal (z-score),[14],0.223
same,glycan array binding signal (z-score),[15],1.22
same,glycan array binding signal (z-score),[16],0.598
same,glycan array binding signal (z-score),[17],0.198
same,glycan array binding signal (z-score),[18],0.241
same,glycan array binding signal (z-score),[19],-0.086
same,glycan array binding signal (z-score),[20],0.195
same,glycan array binding signal (z-score),[21],-0.38
same,glycan array binding signal (z-score),[22],-0.409
same,glycan array binding signal (z-score),[23],-0.419
same,glycan array binding signal (z-score),[24],-0.378
same,glycan array binding signal (z-score),[25],-0.203
same,glycan array binding signal (z-score),[26],-0.35
same,glycan array binding signal (z-score),[27],-0.363
same,glycan array binding signal (z-score),[28],-0.4
same,glycan array binding signal (z-score),[29],-0.407
same,glycan array binding signal (z-score),[30],-0.371
same,glycan array binding signal (z-score),[31],-0.357
